Experimental data: PubChem BioAssay (NCI)
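1) Cells in 96-well plates. 2) Compound, 48 h, 5 concentrations. 3) Linear interpolation between surrounding doses. 4) Unreached endpoint = highest concentration. GI50: concentration for 50% inhibition of growth. TGI denotes the concentration required for complete inhibition of growth.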

tested on: NCI-H322M lung; test: NCI anticancer screen, dose series, 48 h

Row | Compound | GI50 [µM] | TGI [µM]
1 | CC1=C(CCC=NNC(N)=O)C2=C(C)C3(CC3)[C@@](C)(O)C(=O)C2=C1 | 0.0766 | 0.504
2 | Cc1ccc(-c2nc(C#N)c(S(=O)(=O)N3CCN(S(C)(=O)=O)CC3)o2)cc1 | > 100 | > 100
3 | O=C1Nc2ccc(Cl)cc2/C1=C/c1cccc(OCc2ccccc2)c1 | 20 | > 100
4 | CN1CCN(Cc2ccc(C(=O)Nc3cccc(C#Cc4cccc5[nH]nc(N)c45)c3)cc2C(F)(F)F)CC1 | 0.94 | 2.16
